Results are given in words; binding and its absence hold for the method and conditions named. Binding seen in cells or lysates may run through a third protein. Some entries that bind do so weakly or less than the wild type. One block for each substance: values may come before it.
Key:
[1] = molecular target: GST-hnRNP U (expressed in 293T cells) (human) (UniProt Q00839); assay: pull-down; GST fusion and FLAG-tagged partner co-transfected in 293T cells; lysates incubated with glutathione agarose beads; immunoblot
[2] = molecular target: HA-SPC25 (expressed in 293T cells) (human) (UniProt Q9HBM1); assay: co-IP; 293T cells transfected with HA-SPC25 or HA-SPC24, GST-CENP-W and FLAG-hnRNP U; immunoprecipitation with anti-HA antibody
[3] = molecular target: HA-SPC24 (expressed in 293T cells) (human) (UniProt Q8NBT2); assay: as above
[4] = molecular target: His-HA-SPC25 (expressed in E. coli) (human) (UniProt Q9HBM1); assay: co-IP; E. coli lysates with His-CENP-T, His-HA-SPC25 and GST-CENP-W; immunoprecipitation with anti-HA antibody
[5] = molecular target: GST-CENP-W (expressed in E. coli) (human) (UniProt Q5EE01); assay: pull-down; His-HA-SPC25 and GST-CENP-W expressed in E. coli; bacterial lysates used for GST pull-down
[6] = molecular target: endogenous CENP-W (293T cells) (human (endogenous in 293T)) (UniProt Q5EE01); assay: co-IP; Endogenous proteins; 293T cell lysates immunoprecipitated with anti-CENP-W or anti-hnRNP U antibody (1 ug, 2 h, 4°C); immunoblot
[7] = molecular target: endogenous hnRNP U (293T cells) (human (endogenous in 293T)) (UniProt Q00839); assay: as above

Protein sequences, listed by entry. Tags and fused reporters are not part of them. Lines headed by an entry give the natural chain unless they say otherwise; changes in a name come on top.
UniProt Q00839: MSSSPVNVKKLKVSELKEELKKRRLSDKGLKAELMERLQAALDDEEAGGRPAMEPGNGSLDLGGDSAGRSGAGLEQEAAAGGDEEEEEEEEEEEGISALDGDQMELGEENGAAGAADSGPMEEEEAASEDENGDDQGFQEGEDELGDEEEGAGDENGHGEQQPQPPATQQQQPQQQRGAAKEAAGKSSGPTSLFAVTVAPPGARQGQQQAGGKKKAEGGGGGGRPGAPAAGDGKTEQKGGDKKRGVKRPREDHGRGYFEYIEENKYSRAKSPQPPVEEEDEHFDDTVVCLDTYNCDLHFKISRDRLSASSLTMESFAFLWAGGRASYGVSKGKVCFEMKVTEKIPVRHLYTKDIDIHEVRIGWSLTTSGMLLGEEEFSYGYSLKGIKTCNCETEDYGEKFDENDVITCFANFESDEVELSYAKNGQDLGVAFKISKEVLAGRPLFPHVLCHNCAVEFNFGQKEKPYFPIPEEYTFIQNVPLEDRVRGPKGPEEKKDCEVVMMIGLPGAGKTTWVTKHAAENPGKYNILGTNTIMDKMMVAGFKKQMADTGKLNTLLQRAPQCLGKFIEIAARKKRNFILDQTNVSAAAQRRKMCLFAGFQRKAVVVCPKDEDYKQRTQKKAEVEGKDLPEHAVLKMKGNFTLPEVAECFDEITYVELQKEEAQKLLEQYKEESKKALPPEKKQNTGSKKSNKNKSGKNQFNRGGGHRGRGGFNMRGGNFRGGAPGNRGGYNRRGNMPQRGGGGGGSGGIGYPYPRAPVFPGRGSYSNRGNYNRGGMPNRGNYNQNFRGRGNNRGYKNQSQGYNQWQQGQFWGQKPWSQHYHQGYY
UniProt Q9HBM1: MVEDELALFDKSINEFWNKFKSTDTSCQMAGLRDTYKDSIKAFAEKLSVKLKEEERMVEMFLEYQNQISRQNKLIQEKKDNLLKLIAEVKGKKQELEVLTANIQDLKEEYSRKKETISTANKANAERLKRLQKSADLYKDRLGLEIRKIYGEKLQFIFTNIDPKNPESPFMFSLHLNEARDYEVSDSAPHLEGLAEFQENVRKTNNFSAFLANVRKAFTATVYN
UniProt Q8NBT2: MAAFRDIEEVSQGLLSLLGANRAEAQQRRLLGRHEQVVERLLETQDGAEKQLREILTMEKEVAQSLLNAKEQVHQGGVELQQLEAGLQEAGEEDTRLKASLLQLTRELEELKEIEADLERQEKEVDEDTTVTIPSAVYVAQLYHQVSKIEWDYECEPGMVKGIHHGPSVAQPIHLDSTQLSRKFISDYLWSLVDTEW
UniProt Q5EE01: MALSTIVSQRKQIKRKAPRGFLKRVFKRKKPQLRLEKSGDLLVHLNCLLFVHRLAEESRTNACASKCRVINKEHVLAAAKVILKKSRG
UniProt Q96BT3: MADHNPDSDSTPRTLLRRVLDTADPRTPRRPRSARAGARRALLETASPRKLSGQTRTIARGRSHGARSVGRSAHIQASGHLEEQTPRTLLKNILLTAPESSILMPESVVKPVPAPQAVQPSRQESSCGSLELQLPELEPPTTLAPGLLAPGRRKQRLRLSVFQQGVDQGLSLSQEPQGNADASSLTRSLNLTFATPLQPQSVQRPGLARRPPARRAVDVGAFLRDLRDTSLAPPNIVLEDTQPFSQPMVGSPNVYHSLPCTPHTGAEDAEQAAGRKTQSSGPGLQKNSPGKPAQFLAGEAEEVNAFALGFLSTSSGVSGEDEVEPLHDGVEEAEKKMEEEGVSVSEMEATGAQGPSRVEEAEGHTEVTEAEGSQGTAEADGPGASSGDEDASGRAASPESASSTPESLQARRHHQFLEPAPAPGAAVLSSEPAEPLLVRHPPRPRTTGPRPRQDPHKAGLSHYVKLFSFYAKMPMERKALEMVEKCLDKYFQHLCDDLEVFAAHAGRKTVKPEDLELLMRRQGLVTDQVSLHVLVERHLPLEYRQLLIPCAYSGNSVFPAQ

Substance: FLAG-CENP-W deletion mutant (1-30) (expressed in 293T cells) (from UniProt Q5EE01 1-30) (domain or fragment)
- binding [1]: no binding

Substance: GST-CENP-W (expressed in 293T cells) (from UniProt Q5EE01 1-88)
- binding [2]: binds
- binding [3]: binds

Substance: GST-CENP-W (expressed in E. coli) (from UniProt Q5EE01 1-88)
- binding [4]: binds

Substance: endogenous CENP-T (293T cells) (from UniProt Q96BT3 1-561)
- binding [6]: binds

Substance: endogenous CENP-W (293T cells) (from UniProt Q5EE01 1-88)
- binding [7]: binds

Now from value to substance:

- binding [1]: binds
Substance: FLAG-CENP-W (transiently expressed in 293T cells) (from UniProt Q5EE01 1-88)

- binding [5]: binds
Substance: His-HA-SPC25 (expressed in E. coli) (from UniProt Q9HBM1 1-224)

- binding [6]: binds
Substance: endogenous SPC25 (293T cells) (from UniProt Q9HBM1 1-224)

— paper PMC4755543
